# Measured values taken from patent publication US20050203135A1, “Antagonists for treatment of CD/11CD18 adhesion receptor mediated disorders” (Genentech, Inc., priority 1998, published 2005).
# Target: CD11a/CD18-ICAM-1 interaction (recombinant human LFA-1 / human 5 domain ICAM-Ig) (Homo sapiens, UniProt P05107+P20701)
# Details: PLM2(μM), PLM2 antibody capture format of LFA/ICAM assay
row,SMILES,IC50
1,O=C(NCc1cccc(O)c1)c1ccc(C(=O)N[C@@H](CNCc2ccco2)C(=O)O)c(Cl)c1 [Example 293],0.083 µM
2,NC(=O)C[C@H](NC(=O)c1ccc(C(=O)NCc2cccc3occc23)cc1Cl)C(=O)O [Example 297],0.028 µM
3,O=C(CCc1ccco1)NCc1cc(Cl)c(C(=O)N[C@@H](CNC(=O)c2cccs2)C(=O)O)c(Cl)c1 [Example 298],0.009 µM
4,C/C(=C\C(=O)NCc1cc(Cl)c(C(=O)N[C@@H](CNC(=O)c2cccs2)C(=O)O)c(Cl)c1)c1ccco1 [Example 299],0.016 µM
5,CC(CC(=O)NCc1cc(Cl)c(C(=O)N[C@@H](CNC(=O)c2cccs2)C(=O)O)c(Cl)c1)c1ccco1 (some centres unmarked) [Example 300],0.074 µM
6,C/C(=C\c1ccco1)C(=O)NCc1cc(Cl)c(C(=O)N[C@@H](CNC(=O)c2cccs2)C(=O)O)c(Cl)c1 [Example 301],0.025 µM
7,CC(Cc1ccco1)C(=O)NCc1cc(Cl)c(C(=O)N[C@@H](CNC(=O)c2cccs2)C(=O)O)c(Cl)c1 (some centres unmarked) [Example 302],0.023 µM
8,Cc1cc(C(=O)NCc2cccc(O)c2)cc(C)c1C(=O)NC(CC(N)=O)C(=O)O (centres unmarked) [Example 303],0.005 µM
9,Cc1cc(C(=O)NCc2cccc(O)c2)cc(C)c1C(=O)NC(CCCCN)C(=O)O (centres unmarked) [Example 305],0.015 µM
10,Cc1cc(C(=O)NCc2cccc(O)c2)cc(C)c1C(=O)N[C@@H](CNC(=O)c1ccco1)C(=O)O [Example 306],0.004 µM
11,O=C(NCc1cc(Cl)c(C(=O)N[C@@H](CNC(=O)c2cccs2)C(=O)O)c(Cl)c1)c1ccc2cc[nH]c2c1 [Example 307],0.004 µM
12,O=C(NCC#Cc1cccc(O)c1)c1ccc(C(=O)N[C@@H](Cc2c[nH]c3ccccc23)C(=O)O)c(Br)c1 [Example 309],0.057 µM
13,C[C@H](NC(=O)c1ccc(C(=O)NCC#Cc2cccc(O)c2)cc1Br)C(=O)O [Example 312],0.089 µM
14,C=CCOC(=O)NCC[C@H](NC(=O)c1ccc(C(=O)NCc2cccc(O)c2)cc1Cl)C(=O)O [Example 324],0.042 µM
15,CCOC(=O)NCC[C@H](NC(=O)c1ccc(C(=O)NCc2cccc(O)c2)cc1Cl)C(=O)O [Example 326],0.042 µM
16,CC(C)OC(=O)NCC[C@H](NC(=O)c1ccc(C(=O)NCc2cccc(O)c2)cc1Cl)C(=O)O [Example 327],0.07 µM
17,CCCOC(=O)NCC[C@H](NC(=O)c1ccc(C(=O)NCc2cccc(O)c2)cc1Cl)C(=O)O [Example 328],0.074 µM
18,O=C(NCCC[C@H](NC(=O)c1ccc(C(=O)NCc2cccc(O)c2)cc1Cl)C(=O)O)OC1CC1 [Example 330],0.009 µM
19,CCOC(=O)NCCC[C@H](NC(=O)c1ccc(C(=O)NCc2cccc(O)c2)cc1Cl)C(=O)O [Example 331],0.027 µM
20,COC(=O)NCCC[C@H](NC(=O)c1ccc(C(=O)NCc2cccc(O)c2)cc1Cl)C(=O)O [Example 332],0.057 µM
21,CCCOC(=O)NCCCC[C@H](NC(=O)c1ccc(C(=O)NCc2cccc(O)c2)cc1Cl)C(=O)O [Example 335],0.096 µM
22,COC(=O)NCCCC[C@H](NC(=O)c1ccc(C(=O)NCc2cccc(O)c2)cc1Cl)C(=O)O [Example 337],0.079 µM
23,NC(=O)C[C@H](NC(=O)c1ccc(C(=O)NCC#Cc2cccc(O)c2)cc1Br)C(=O)O [Example 338],0.06 µM
24,C=CCOC(=O)NC[C@H](NC(=O)c1ccc(C(=O)NCC#Cc2cccc(O)c2)cc1Br)C(=O)O [Example 339],0.02 µM
25,C=CCOC(=O)NCCCC[C@H](NC(=O)c1ccc(C(=O)NCc2cccc(O)c2)cc1Cl)C(=O)O [Example 352],0.042 µM
26,C=CCOC(=O)NCCC[C@H](NC(=O)c1ccc(C(=O)NCc2cccc(O)c2)cc1Cl)C(=O)O [Example 353],0.074 µM
27,O=C(NCc1cccc(O)c1)c1ccc(C(=O)N[C@@H](Cc2ccc(O)cc2)C(=O)O)c(Cl)c1 [Example 354],0.008 µM
28,O=C(NCc1cccc(O)c1)c1ccc(C(=O)NC2(C(=O)O)CC2)c(Cl)c1 [Example 359],0.016 µM
29,O=C(NCc1cccc(O)c1)c1ccc(C(=O)NC(Cc2cccc(O)c2)C(=O)O)c(Cl)c1 (centres unmarked) [Example 360],0.018 µM
